In article PMC12820563, “FoxP3 forms a head-to-head dimer in vivo and stabilizes its multimerization on adjacent microsatellites” one finds binding signal data, which are given here for 32 sequences.

Some of the results follow.

The target in the assay is T1, MBP-FoxP1dN (Mus musculus, UniProt P58462 326-579).
T1 sequence: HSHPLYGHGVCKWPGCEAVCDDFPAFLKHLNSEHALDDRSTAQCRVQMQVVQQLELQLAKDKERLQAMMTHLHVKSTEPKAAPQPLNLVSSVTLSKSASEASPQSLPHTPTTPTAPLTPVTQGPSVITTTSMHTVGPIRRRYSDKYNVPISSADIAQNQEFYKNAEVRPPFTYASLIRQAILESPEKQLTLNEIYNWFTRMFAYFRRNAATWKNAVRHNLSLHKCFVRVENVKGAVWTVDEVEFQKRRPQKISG
Nature of the assay: PD-seq (MBP pull-down with sequencing); 20 mM Tris-HCl pH 7.5, 100 mM NaCl, 1.5 mM MgCl2, 0.4 uM protein, 0.1 uM dsDNA library, 30 min, room temperature, amylose pull-down; high values mean tight binding. The settings on record: protein: recombinant; tags: His6-MBP; chain copies: 2; dsDNA, one strand shown. Put shortly:
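Amylose resin was used to capture complexes formed during 30 min at room temperature in Tris pH 7.5 buffer with NaCl and MgCl2 between 0.4 µM His6-MBP-tagged mouse FoxP3 or FoxP1 fragment lacking the N-terminus, expressed in E. coli, and 0.1 µM Klenow-filled double-stranded degenerate DNA library. After three washes, the DNA was released with proteinase K, barcoded by PCR and sequenced on Illumina. Binding is pooled-replicate reads-per-million enrichment, pull-down over input.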
As to “GATGATTGTTCTCCCAGCTGATGAATTTCTAGTTTCGAGTAAACAAATTTTCCTAATCTTTCTGTTCAAGCGCCATCTAC”, the binding signal was 0.858 RPM ratio (pull-down/input).
As to “GATGATTGTTCTCCCAGCTGATGAATTATATACTTCGAGTAAACAAATTTTCCTAATCTTTCTGTTCAAGCGCCATCTAC”, the binding signal was 1.04 RPM ratio (pull-down/input).
Under “GATGATTGTTCTCCCAGCTGATGAATTTGGAGAATCGAGTAAACAAATTTTCCTAATCTTTCTGTTCAAGCGCCATCTAC” stands 0.952 RPM ratio (pull-down/input); under “GATGATTGTTCTCCCAGCTGATGAATTGGGCGATTCGAGTAAACAAATTTTCCTAATCTTTCTGTTCAAGCGCCATCTAC”, 0.946 RPM ratio (pull-down/input); under “GATGATTGTTCTCCCAGCTGATGAATTCCATGCCTCGAGTAAACAAATTTTCCTAATCTTTCTGTTCAAGCGCCATCTAC”, 0.84 RPM ratio (pull-down/input).
With “GATGATTGTTCTCCCAGCTGATGAATTGTTGATATCGAGTAAACAAATTTTCCTAATCTTTCTGTTCAAGCGCCATCTAC”, the binding signal is 2.16 RPM ratio (pull-down/input).
Under “GATGATTGTTCTCCCAGCTGATGAATTCCAGATTTCGAGTAAACAAATTTTCCTAATCTTTCTGTTCAAGCGCCATCTAC” stands 0.838 RPM ratio (pull-down/input).
Under “GATGATTGTTCTCCCAGCTGATGAATTATCAACTTCGAGTAAACAAATTTTCCTAATCTTTCTGTTCAAGCGCCATCTAC” stands 1.02 RPM ratio (pull-down/input).
Under “GATGATTGTTCTCCCAGCTGATGAATTTAAATGGTCGAGTAAACAAATTTTCCTAATCTTTCTGTTCAAGCGCCATCTAC” stands 0.899 RPM ratio (pull-down/input); under “GATGATTGTTCTCCCAGCTGATGAATTGCCCATATCGAGTAAACAAATTTTCCTAATCTTTCTGTTCAAGCGCCATCTAC”, 1.03 RPM ratio (pull-down/input); under “GATGATTGTTCTCCCAGCTGATGAATTGACTCTTTCGAGTAAACAAATTTTCCTAATCTTTCTGTTCAAGCGCCATCTAC”, 1.16 RPM ratio (pull-down/input).
For “GATGATTGTTCTCCCAGCTGATGAATTCGGCACATCGAGTAAACAAATTTTCCTAATCTTTCTGTTCAAGCGCCATCTAC”, the binding signal was 0.962 RPM ratio (pull-down/input).
Under “GATGATTGTTCTCCCAGCTGATGAATTAAGTACATCGAGTAAACAAATTTTCCTAATCTTTCTGTTCAAGCGCCATCTAC” stands 1.15 RPM ratio (pull-down/input); under “GATGATTGTTCTCCCAGCTGATGAATTCACACCATCGAGTAAACAAATTTTCCTAATCTTTCTGTTCAAGCGCCATCTAC”, 1.03 RPM ratio (pull-down/input); under “GATGATTGTTCTCCCAGCTGATGAATTACCTAGATCGAGTAAACAAATTTTCCTAATCTTTCTGTTCAAGCGCCATCTAC”, 0.958 RPM ratio (pull-down/input).
Under “GATGATTGTTCTCCCAGCTGATGAATTGTTGTACTCGAGTAAACAAATTTTCCTAATCTTTCTGTTCAAGCGCCATCTAC” stands 1.62 RPM ratio (pull-down/input); under “GATGATTGTTCTCCCAGCTGATGAATTACTCTGGTCGAGTAAACAAATTTTCCTAATCTTTCTGTTCAAGCGCCATCTAC”, 0.966 RPM ratio (pull-down/input).
Regarding “GATGATTGTTCTCCCAGCTGATGAATTAGTATGCTCGAGTAAACAAATTTTCCTAATCTTTCTGTTCAAGCGCCATCTAC”, the binding signal is 1.06 RPM ratio (pull-down/input).
Under “GATGATTGTTCTCCCAGCTGATGAATTCTATTGCTCGAGTAAACAAATTTTCCTAATCTTTCTGTTCAAGCGCCATCTAC” stands 1.06 RPM ratio (pull-down/input); under “GATGATTGTTCTCCCAGCTGATGAATTGAAGATATCGAGTAAACAAATTTTCCTAATCTTTCTGTTCAAGCGCCATCTAC”, 0.965 RPM ratio (pull-down/input); under “GATGATTGTTCTCCCAGCTGATGAATTTGTGCGATCGAGTAAACAAATTTTCCTAATCTTTCTGTTCAAGCGCCATCTAC”, 1.08 RPM ratio (pull-down/input).
Under “GATGATTGTTCTCCCAGCTGATGAATTGAACCAATCGAGTAAACAAATTTTCCTAATCTTTCTGTTCAAGCGCCATCTAC” stands 1.02 RPM ratio (pull-down/input); under “GATGATTGTTCTCCCAGCTGATGAATTGGCCAAGTCGAGTAAACAAATTTTCCTAATCTTTCTGTTCAAGCGCCATCTAC”, 0.813 RPM ratio (pull-down/input); under “GATGATTGTTCTCCCAGCTGATGAATTCGATTAGTCGAGTAAACAAATTTTCCTAATCTTTCTGTTCAAGCGCCATCTAC”, 0.829 RPM ratio (pull-down/input).
Under “GATGATTGTTCTCCCAGCTGATGAATTCTTACGCTCGAGTAAACAAATTTTCCTAATCTTTCTGTTCAAGCGCCATCTAC” stands 0.936 RPM ratio (pull-down/input); under “GATGATTGTTCTCCCAGCTGATGAATTGGGCTTCTCGAGTAAACAAATTTTCCTAATCTTTCTGTTCAAGCGCCATCTAC”, 0.82 RPM ratio (pull-down/input).
As for “GATGATTGTTCTCCCAGCTGATGAATTGTCCCTGTCGAGTAAACAAATTTTCCTAATCTTTCTGTTCAAGCGCCATCTAC”, the binding signal is 1.01 RPM ratio (pull-down/input).
On to “GATGATTGTTCTCCCAGCTGATGAATTTGAATCGTCGAGTAAACAAATTTTCCTAATCTTTCTGTTCAAGCGCCATCTAC”, for which the binding signal is 0.833 RPM ratio (pull-down/input).
Under “GATGATTGTTCTCCCAGCTGATGAATTGTTGGGATCGAGTAAACAAATTTTCCTAATCTTTCTGTTCAAGCGCCATCTAC” stands 1.28 RPM ratio (pull-down/input); under “GATGATTGTTCTCCCAGCTGATGAATTGATTTGCTCGAGTAAACAAATTTTCCTAATCTTTCTGTTCAAGCGCCATCTAC”, 1.02 RPM ratio (pull-down/input).
Under “GATGATTGTTCTCCCAGCTGATGAATTAGGTTCTTCGAGTAAACAAATTTTCCTAATCTTTCTGTTCAAGCGCCATCTAC” stands 0.915 RPM ratio (pull-down/input); under “GATGATTGTTCTCCCAGCTGATGAATTAAACCTCTCGAGTAAACAAATTTTCCTAATCTTTCTGTTCAAGCGCCATCTAC”, 0.822 RPM ratio (pull-down/input).
